Assay results reported in PubChem BioAssay AID1963576 (National Center for Advancing Translational Sciences (NCATS), 2024).
Hit rate of the full screen: of about 46,000 compounds, about 60 (0.1%) were called active. Another 3% or so got no clear call; they are omitted. Calls follow the shape of the dose curve; as a rule, active = well fitted inhibition curve with a large enough effect; inconclusive = small, poorly fitted or top-dose-only effect; inactive = no such curve, though single readings can be large or run the other way. The list shows a part of the results.

test: Primary qHTS assay for Inhibitors of ovarian cancer metastasis using an organotypic tumor microenvironment (TME) model.; also: nearly all actives have a fitted effect of over 65% in size;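 as to activity change, negative = inhibition: plate controls were DMSO wells for no effect and tomatine positive control wells for full effect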; conditions: SKOV3ip1-GFP adhesion/invasion on 3D omental model, fluorescence; series mostly up to 45.8 µM; activity change, negative = inhibition: at the top concentration
Summary of the method: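 qHTS, 4-pt dose (0.36-46 umol/L); SKOV3ip1-GFP, 1,200 cells/well, no FBS; primary omental fibroblast/mesothelial co-culture 48 h pre-grown; 2 h RT + 16 h 37 C; PBS wash, 4% PFA; GFP count 488/509 nm.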

Activity change, negative = inhibition, inactive:
COc1cc(OC)c2c(C)c(CC(=O)NCc3ccccc3OC)c(=O)oc2c1 6.82%, CCN(CC)c1nn2c(=O)c(C(=O)NCc3ccccc3Br)cnc2s1 -3.29%, Cn1nc(C(=O)NCc2ccccc2Cl)c2c1-c1ccccc1SC2 4.63%, COc1ccc(CCNC(=O)c2ccc3c(c2)CCN3S(=O)(=O)c2ccc(C)cc2)cc1OC -0.0884%, O=S(=O)(Nc1cccc(-c2ccc(N3CCOCC3)nn2)c1)c1ccc(F)c(C(F)(F)F)c1 3.76%, CCSc1nc2sc3c(c2c(=O)n1-c1ccc(C)c(Cl)c1)CCN(C(C)=O)C3 -0.732%, O=S(=O)(c1ccc2nc(Nc3ccc(Br)cc3F)ccc2c1)N1CCCCC1 0.646%, CCc1ccc(-c2[nH]nc3nc(-c4cc(OC)ccc4OC)cc(C(=O)O)c23)cc1 -16.2%, COC(=O)c1sccc1S(=O)(=O)N(CC(=O)Nc1cc(F)ccc1F)c1ccc(C)c(C)c1 -5.17%, COc1ccc(C)cc1NC(=O)CN(C)S(=O)(=O)c1ccc2[nH]c(=O)oc2c1 -17.9%, CCc1nccn1S(=O)(=O)c1cc(Br)ccc1Br 9.09%, Cc1cc(Cl)ccc1OCCSc1nnc(-c2cccs2)o1 0.52%, COc1cc(F)c(C(C)C)cc1-c1ccc(C(F)(F)F)cc1CN1C(=O)O[C@H](c2cc(C(F)(F)F)cc(C(F)(F)F)c2)[C@@H]1C -14.1%, Cc1ccc(NC(=O)Cn2c(=O)n(CCCCC(=O)NCCc3ccccc3)c(=O)c3ccccc32)cc1 6.77%, O=C(Nc1cccc(C(F)(F)F)c1)C1CCCN(S(=O)(=O)c2cccc3nonc23)C1 (stereo unspecified) -5.54%, Cc1oc2ncn(CC(C)C)c(=O)c2c1C(=O)NCCCN(C)Cc1ccccc1 4.62%, CCOC(=O)c1c(SCC(=O)Nc2cccc(C)c2C)nc(=O)[nH]c1C -7.92%, CCOC(=O)Cn1c(=O)oc2cc(S(=O)(=O)Nc3ccccc3F)ccc21 -7.23%, COc1cc(C(C)C)c(Oc2cnc(NC(CO)CO)nc2N)cc1I -8.1%, Cc1cc2oc(C(=O)Nc3ccc(S(=O)(=O)N(C)c4ccccc4)cc3)cc(=O)c2cc1C 11.3%, O=C(Cn1cc(S(=O)(=O)Cc2ccccc2Cl)c2ccccc21)Nc1ccc(F)cc1F -4.74%, O=C(Cn1ncc2c(Cl)cccc21)NCc1cccc(F)c1 -17.3%, COC(=O)c1ccc2c(c1)N(Cc1cc(C)ccc1C)C(=O)c1ccccc1S2(=O)=O 57.2%, CCOc1ccc(S(=O)(=O)N2CCC(n3c(C)nc4cccnc43)CC2)cc1 9.19%, CCOc1ccc(CNC(=O)c2ccc3c(c2)N(Cc2ccccc2)CCS3)cc1 -8.89%, COc1ccccc1N1CCN(C(=O)COc2ccccc2C#N)CC1 23.7%, CN(C(=O)CSc1nc2ccccc2n1CC(=O)N(C)C1CCCCC1)c1ccc(F)cc1 1.01%, COC(=O)c1cc2sccc2n1Cc1nc(-c2ccc(C)cc2)oc1C -15.1%, CCc1ccccc1NC(=O)c1ccc2c(c1)c(C)c(C)n2Cc1ccccc1 11.9%, CCOC(=O)c1c(C)[nH]c(C)c1S(=O)(=O)N(C)CC(=O)Nc1ccc(C)c(F)c1 69.7%, CC(=O)Nc1ccc2nc(SCCOc3ccccc3Cl)sc2c1 2.55%, CCCCN(c1ccccc1)c1ncnc2c1cnn2-c1cccc(C)c1 3.04%, CCOc1ccc(NC(=O)Cn2c(=O)n(-c3ccccc3)c(=O)c3c4c(sc32)CCCC4)cc1 9.85%, CCc1nnc2c3ccccc3nc(N3CCN(c4cc(Cl)ccc4C)CC3)n12 4.49%, O=C(COc1ccc(Br)cc1)Nc1ccc(C(=O)OC2CCCCC2)cc1 8.12%, CCc1ccc(S(=O)(=O)c2cn(Cc3ccc(OC)cc3)c3cc(OC)c(OC)cc3c2=O)cc1 8.64%, CC(=O)N1CCCc2cc(S(=O)(=O)N3CCCC(C(=O)Nc4ccc(C)c(F)c4)C3)ccc21 (stereo unspecified) -0.919%, Cc1cccc(C(=O)Nc2ccccc2OCc2cc(=O)n3cc(C)ccc3n2)c1 7.31%, COc1cc(OC)c2c(C)c(CC(=O)N3CCCCC3)c(=O)oc2c1 14.5%, CCc1nc2nc(C)cc(Nc3ccc(F)c(Cl)c3)n2n1 27.4%, O=C1CC(c2ccc(Br)cc2)c2c(ccc3ccccc23)N1 (stereo unspecified) 6.07%, Cc1c(Cl)cccc1NC(=O)Cn1c(=O)n(Cc2ccco2)c(=O)c2oc3ccccc3c21 -0.973%, COC(=O)c1c(Oc2ccc(Br)cc2)nnc(-c2ccccc2)c1-c1ccccc1 -1.31%, CC(C)n1c(=O)c2oc3ccccc3c2n(CC(=O)Nc2ccccc2Cl)c1=O 12%, CC(Oc1ccc(O)cc1)(P(=O)(O)O)P(=O)(O)O -6.81%, CCN(CC)CCCNc1oc(-c2ccc(OC)cc2)nc1C#N -0.72%, COc1ccccc1-c1c(C)nn2c(N3CCN(c4ccc(F)cc4)CC3)cc(C)nc12 -10.4%, COc1ccc(N2CC(NC(=O)c3cccs3)CC2=O)cc1OC (stereo unspecified) -4.29%, O=C(Nc1ccc(F)cc1)c1ccc(-n2cnnc2)cc1 -17.3%, CC(=O)Nc1ccc(NS(=O)(=O)c2ccc3c(c2)CCCN3C(C)=O)cc1 5.14%, O=C1NC(=O)C(c2ccccc2[N+](=O)[O-])=C1Nc1ccc(O)c(Cl)c1 5.65%, O=C(Nc1nnc(S(=O)(=O)N2CCCCC2)s1)c1ccc(Cl)cc1 -7.29%, CCc1ccc(-c2[nH]c3c(c2-c2c(-n4cccc4)n(C)c(=O)[nH]c2=O)c(=O)[nH]c(=O)n3C)cc1 6.69%, COc1ccc(-n2ncc(C(=O)Nc3ccc(C)cc3Cl)c2C2CCN(C(=O)OC(C)(C)C)CC2)cc1 -0.798%, COc1ccccc1CNC(=O)c1ccc(NC(=O)N2CC(C)Sc3ccccc32)cc1 (stereo unspecified) 1.33%, Cc1cccc(C)c1NC(=O)C1CCCN(S(=O)(=O)c2c(C)noc2/C=C/N(C)C)C1 (stereo unspecified) 0.531%, CCN(CC)CCNC(=O)C1CCCN(c2nnc(C)c3c(C)n(-c4ccc(Cl)cc4)nc23)C1 (stereo unspecified) -7.04%, CCOc1ccc(NC(=O)CSc2nnc(CC)c(CC)n2)cc1 -6.83%, CCOc1ccc(-c2cn3c(n2)sc2cc(C(=O)NCCC4=CCCCC4)ccc23)cc1 13.5%, COc1ccc(S(=O)(=O)NCC(c2ccco2)S(=O)(=O)c2ccc(C)cc2)cc1C (stereo unspecified) 3.12%, Cc1ccc(-c2noc(-c3cccnc3NCc3ccc(Cl)cc3)n2)cc1 -5.1%, Cc1ccc(-c2nc3scc(CCNS(=O)(=O)c4ccc(C)c(C)c4)n3n2)cc1 7.74%, COC(=O)c1ccc(NC(=O)CSc2ccc(-c3cccs3)nn2)cc1 -20.8%, Cc1cccc(OCC(=O)Nc2ccc(C(=O)OCc3cc(=O)n4nc(C5CC5)sc4n3)cc2)c1 -0.181%, CCOC(=O)c1cc(-c2ccc(C)cc2)n(CCC(=O)NCc2ccccc2)c1C 5.15%, C#CCOc1ccc(C2C(C(=O)OC)=C(C)NC3=C2C(=O)c2ccccc23)cc1OCC (stereo unspecified) 10.4%, Cc1cc(C)c(NC(=O)c2cc(CN3CCOCC3)on2)c(C)c1 3.9%, CCc1ccc(NC(=O)C(Cc2ccccc2)NS(=O)(=O)c2ccc3c(c2)CCN3C(C)=O)cc1 (stereo unspecified) 9.62%, CN1CCN(C(=O)c2cnn(-c3cccc(F)c3)c2C2CCN(C(=O)OC(C)(C)C)CC2)CC1 7.07%, CCOc1ccccc1CNC(=O)c1nn(C)c2c1CS(=O)(=O)c1ccccc1-2 4.61%, CC(C)c1ccc(CNc2nc(-c3ccco3)nn2S(=O)(=O)c2ccccc2)cc1 -10.7%, Cc1cc2c(cc1NC(=O)c1ccc(C(C)(C)C)cc1)n(C)c(=O)c(=O)n2C 0.627%, COc1ccc(N2CCN(C(CNC(=O)c3ccc(C)cc3)c3ccc4c(c3)OCO4)CC2)cc1 (stereo unspecified) -7.08%, Cc1csc2nc(COc3ccc(NC(=O)COc4ccc(F)cc4)cc3)cc(=O)n12 -4.99%, Cc1ccc(NC(=O)Cn2cc(S(=O)(=O)N3CCN(c4ccccc4F)CC3)c3ccccc3c2=O)cc1F -1.23%, Cc1sc(-c2cc3ccccc3oc2=O)nc1-c1ccc(Cl)cc1 1.2%

outcome, inactive:
COc1ccc(-c2cc(C(F)(F)F)nc(SCC(=O)N(C)Cc3ccccc3)n2)cc1, O=C(COc1ccccc1Cl)Nc1ccc2nc(SCC(=O)N3CCOCC3)sc2c1, Cc1ccc(NC(=O)CSc2nccn2-c2ccccc2)cc1, COC(=O)c1ccc2c(c1)N(CC(=O)Nc1ccc(C)cc1Cl)C(=O)c1ccccc1S2, O=C(CCNS(=O)(=O)c1ccc2c(c1)CCCC(=O)N2)NCc1ccc(Cl)cc1, Cc1ccccc1Cn1cc(S(=O)(=O)c2ccc(F)cc2)c(=O)c2cc3c(cc21)OCO3, Cc1cc(=O)n(Cc2ccc(Br)cc2F)c2c1c(C)nn2-c1ccccc1, CCn1c(C)c(C)c2cc(C(=O)NCCc3cc(OC)ccc3OC)ccc21, COc1cc(-c2nnc(SCCOc3ccccc3)o2)cc(OC)c1OC, Cc1oc2c(C)c3oc(=O)c(CCC(=O)N4CCCCC4)c(C)c3cc2c1C, CC(=O)N1CCc2c(sc(NC(=O)CSc3ccc(F)cc3)c2-c2nc3ccccc3s2)C1, COc1ccc(-c2noc(-c3ccc(NCCc4ccccc4)c([N+](=O)[O-])c3)n2)cc1, Cc1ccc(Cn2c(CO)cnc2SCC(=O)Nc2cccc(F)c2)cc1, Cc1cc(C)c(NC(=O)C2CCCN(C(=O)c3cnn(-c4ccccc4)c3-n3cccc3)C2)c(C)c1 (stereo unspecified), COc1ccc(NC(=O)CCc2c(C)nc3cc(-c4cccc(F)c4)nn3c2C)cc1Cl, Cc1ccc(CN2CCC(CNC(=O)Nc3cccc(C)c3C)C2)cc1 (stereo unspecified), O=S(=O)(NCCc1csc(-c2ccc(F)cc2)n1)c1ccc(F)cc1F, CCOc1ccc(Sc2cc(C(=O)NCCCOC)c3ccccc3n2)cc1, COc1ccc2cc(S(=O)(=O)c3ccccc3F)c(=O)oc2c1, Cc1ccc(C)c(CSc2c(C(C)C)cnc3c2c(=O)n(C)c(=O)n3C)c1
